Records with an inconclusive call do not appear. Some entries of the source have several records that differ or are many. This is not the full list of results. An entry can have further records. Results that share an entry are repeats across runs, samples, wells, individuals or studies. What stands in brackets tells the records apart. A, B and so on number the origins entry by entry.
System: BDF1 mice, Friend leukemia sc, tumor weight T/C
Experiment: NCI In Vivo Anticancer Drug Screen. Data for tumor model Friend Virus Leukemia (Solid) (subcutaneous) in B6D2F1 (BDF1) mice
Details: endpoint: mean tumor weight, higher = larger tumour
Protocol: The antitumor activity of compounds was measured in mice bearing transplantable tumors. Survival or tumor size were measured and the results are expressed as the measurement made in the treated group (T) divided by the measurement made in the vehicle treated control group (C). The tumor model used in this assay is Friend Virus Leukemia (Solid) (subcutaneous) in B6D2F1 (BDF1) mice

CCOC(N)=O
T/C (dose: 200.0 mg/kg/injection, schedule: Q01DX011 (ip), vehicle: carboxymethylcellulose (CMC)): 72 % of control and 107 % of control

CCOC(=O)NP(=O)(N1CC1)N1CC1
T/C (dose: 5.0 mg/kg/injection, schedule: Q01DX011 (ip), vehicle: saline): 41 % of control, 105 % of control, 172 % of control
T/C (dose: 10.0 mg/kg/injection, schedule: Q01DX011 (ip), vehicle: saline): 36 % of control and 79 % of control
T/C (dose: 15.0 mg/kg/injection, schedule: Q01DX011 (ip), vehicle: saline): 15 % of control, 30 % of control, 72 % of control
T/C (dose: 19.0 mg/kg/injection, schedule: Q01DX011 (ip), vehicle: saline): 12 % of control, 48 % of control, 72 % of control

Cc1ncc(CO)c(C)c1O
T/C (dose: 73.0 mg/kg/injection, schedule: Q01DX011 (ip), vehicle: carboxymethylcellulose (CMC)): 77 % of control, 112 % of control, 116 % of control

O=C(O)C1(NO)CCCC1
T/C (dose: 50.0 mg/kg/injection, schedule: Q01DX011 (ip), vehicle: carboxymethylcellulose (CMC)): 68 % of control and 96 % of control

S=P(N1CC1)(N1CC1)N1CC1
T/C (dose: 1.2 mg/kg/injection, schedule: Q01DX011 (ip), vehicle: carboxymethylcellulose (CMC)): 34 % of control and 94 % of control

CNS(=O)(=O)c1ncnc2nc[nH]c12
T/C (dose: 47.0 mg/kg/injection, schedule: Q01DX011 (ip), vehicle: carboxymethylcellulose (CMC)): 40 % of control and 116 % of control

N=[N+]=CC(=O)OCC(N)C(=O)O (stereo unspecified)
T/C (dose: 0.9 mg/kg/injection, schedule: Q01DX011 (ip), vehicle: carboxymethylcellulose (CMC)): 70 % of control and 110 % of control
T/C (dose: 7.2 mg/kg/injection, schedule: Q01DX011 (ip), vehicle: carboxymethylcellulose (CMC)): 69 % of control and 101 % of control

O=C1C=CC(=O)O1 (tested in a mixture with another compound)
T/C (dose: 31.0 mg/kg/injection, schedule: Q#A X022 (ip), vehicle: carboxymethylcellulose (CMC)): 65 % of control [sample A] and 46 % of control, 67 % of control [sample B] and 86 % of control [sample C]
T/C (dose: 62.5 mg/kg/injection, schedule: Q#A X022 (ip), vehicle: carboxymethylcellulose (CMC)): 44 % of control [sample A] and 86 % of control [sample B]

CC(C)Sc1nc(N)nc2nc[nH]c12
T/C (dose: 6.0 mg/kg/injection, schedule: Q01DX011 (ip), vehicle: carboxymethylcellulose (CMC)): 14 % of control and 55 % of control
T/C (dose: 12.0 mg/kg/injection, schedule: Q01DX011 (ip), vehicle: carboxymethylcellulose (CMC)): 12 % of control and 59 % of control

CNC(C)=O
T/C (dose: 125.0 mg/kg/injection, schedule: Q01DX011 (ip), vehicle: carboxymethylcellulose (CMC)): 95 % of control and 180 % of control

— PubChem BioAssay AID228 (DTP/NCI, 2004)
